{"source": "ChEMBL document CHEMBL1201862", "about": "“PubChem BioAssay data set” (2004)", "note": "“And” between values parts separate entries of the source, which are not always exact repeats. Equal entries are not always repeated.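 Interpolation was linear, between the two tested concentrations surrounding the appropriate level; five concentrations were tested over 48 hours in 96-well plates. At the GI50, growth is halved.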 The source made the active and inactive calls. Cut-off read from the data, not from the text of the source: active = GI50 up to about 1.1 µM and inactive = higher. Numbered stars: 1 amine (or outer) side, 2 acyl side, 3 side chain; on linkers, the order of the positions; unused ones are H or OH. Square brackets hold non-standard residues; d marks the D form. Peptide text beside a SMILES is read from it. * marks the point of attachment. ξ: configuration not given here. X38 = CCC(=O)CC(O)CC(C)CC(N[*:1])C(=O)[*:2]; ξLeu(3ξ-OH) = CC(C)C(O)C(N)C(=O)O; ξPro(4ξ-Me) = CC1CNC(C(=O)O)C1; X37 = CCC(C)/C=C/C(=O)*; Aib = CC(C)(N)C(=O)O; X39 = CC(CN(C)C)N*; βAla = NCCC(=O)O", "data": [{"system": "NCI-H322M", "assay": "growth of human tumour cells (NCI), 48 h", "values": [{"smiles": "CC1CCC(C(C)C)C(OC(=O)NCn2cc(-c3ccccc3)nn2)C1", "note": "(centres undefined)", "GI50": "inactive: > 100 µM"}, {"smiles": "CCC[C@H]1C(=O)N=C(N)N1C(=O)OCc1ccccc1", "GI50": "inactive: > 100 µM"}, {"smiles": "CCOC(=O)C(Cl)(Cl)/S(=N\\S(=O)(=O)c1ccccc1)NC(=O)c1ccccc1", "note": "(centres undefined)", "GI50": "inactive: > 100 µM"}, {"smiles": "O=C(O)CCN1CCN(CCC(=O)O)CCN(CCC(=O)O)CC1", "GI50": "inactive: > 100 µM"}, {"smiles": "c1cc(-c2ccc(Oc3ccc(-c4ccncc4)cc3)cc2)ccn1", "GI50": "inactive: 23.8 µM"}, {"smiles": "COc1ccc(/C=C2\\NC(=S)N(CN3CCOCC3)C2=O)cc1", "GI50": "inactive: > 100 µM"}, {"smiles": "C=CC(O)(CBr)CCC(Br)C(=C)C", "note": "(centres undefined)", "GI50": "inactive: > 10 µM"}, {"smiles": "O[C@H]1[C@@H]2OC[C@@H](O)[C@H](OCc3ccccc3)[C@@](COCc3ccccc3)(O2)[C@@H]1OCc1ccccc1", "GI50": "inactive: 14 µM"}, {"smiles": "Cc1ccc(C(=O)CC2(O)C(=O)Nc3c(C)cc(Cl)cc32)cc1", "note": "(centres undefined)", "GI50": "inactive: > 100 µM"}, {"smiles": "O=C(c1cc(Cl)ccc1Cl)N1CCN(c2cccc(Cl)c2)CC1", "GI50": "inactive: 26.9 µM"}, {"smiles": "O=C(CCn1[nH]c(=O)c(Cl)c(Cl)c1=O)NNC(=O)C[n+]1ccccc1", "GI50": "inactive: > 100 µM"}, {"smiles": "CCCCCCCCCCCCCC(=O)OCC1OC(n2cc(F)c(=O)[nH]c2=O)C(N)C(OC(=O)CCCCCCCCCCCCC)C1O", "note": "(centres undefined)", "GI50": "inactive: > 100 µM"}, {"smiles": "C1=CN2C[n+]3cccc(OCc4ccccc4)c3N=C2C(OCc2ccccc2)=C1", "GI50": "inactive: 58.2 µM"}, {"smiles": "[N-]=[N+]=NC1OC(=O)C(Cl)=C1N=P(c1ccccc1)(c1ccccc1)c1ccccc1", "note": "(centres undefined)", "GI50": "inactive: > 10 µM"}, {"smiles": "CCOP(=O)(O)CC1OC(CO)C(O)C1O", "note": "(centres undefined)", "GI50": "inactive: > 100 µM"}, {"smiles": "COC1/C=C/C(C)C(OC)CC(O)/C=C/C(C)C(C(C)C(OC)C(C)CCC(=O)C(C)C(C/C=C/N(C)C=O)OC)OC(=O)/C=C/C=C(\\C)CC(OC)CC2=CC(=O)O[C@@H](C(C)C(OC)C1)[C@H]2O", "note": "(some centres undefined)", "GI50": "active: 0.404 µM"}, {"smiles": "CCCCn1c(C)c2c(c1C)C(=O)N(CCN1CCN(c3ccccc3Cl)CC1)C2=O", "GI50": "inactive: 41.5 µM"}, {"smiles": "CC(=O)Oc1cc2c(cc1OC(C)=O)C1(C)CCC2(C)c2cc(OC(C)=O)c(OC(C)=O)cc21", "GI50": "inactive: 32.1 µM"}, {"smiles": "CC(C)OC(=O)c1cc(NC(=S)OC(C)C)ccc1Cl", "GI50": "inactive: 19.7 µM"}, {"smiles": "O=C1N2CCC[C@H]2CS1(=O)=O", "GI50": "inactive: 22.7 µM"}, {"smiles": "Cc1cc([N+](=O)[O-])ccc1NC(=O)C(=O)C(C(=O)c1ccccc1-c1ccccc1)C1OC(=O)c2ccccc21", "note": "(centres undefined)", "GI50": "inactive: 15.8 µM"}, {"smiles": "O=C(O)Cc1ccc2nc(COC(=O)c3ccccc3)sc2c1", "GI50": "inactive: > 100 µM"}, {"smiles": "O=C(N/N=C(/c1ccccc1)C(F)(F)F)c1ccncc1", "GI50": "inactive: > 100 µM"}, {"smiles": "Cc1cc(-c2no[n+]([O-])c2-c2cc(C)sc2S(C)(=O)=O)c(S(C)(=O)=O)s1", "GI50": "inactive: > 100 µM"}, {"smiles": "O=C1c2ccccc2CC1C1(O)C(=O)Nc2ccccc21", "note": "(centres undefined)", "GI50": "inactive: > 100 µM"}, {"smiles": "CC1(O)CCC(C(C)(C)O)CC1", "note": "(centres undefined) [TERPIN]", "GI50": "inactive: > 100 µM"}, {"smiles": "COc1ccc(N2C(=O)CS(=O)(=O)C2c2cccc(Oc3ccccc3)c2)cc1", "note": "(centres undefined)", "GI50": "inactive: 7.23 µM"}, {"smiles": "O=C1CC(c2cccc(Cl)c2)Nc2ccc(N3CCCC3)cc21", "note": "(centres undefined)", "GI50": "active: 0.957 µM"}, {"smiles": "CN(C)c1ncnc2c1Cc1ccccc1C(=O)N2C", "GI50": "inactive: > 100 µM"}, {"smiles": "O=C(Nc1ccc(Cl)cc1)c1cc([N+](=O)[O-])ccc1O", "GI50": "inactive: 4.04 µM"}, {"smiles": "O=[N+]([O-])c1ccc(S(=O)(=O)Cc2ccccc2)c([N+](=O)[O-])c1", "GI50": "inactive: 17.6 µM"}, {"smiles": "Cc1ccc(/C=N/n2c(Cc3ccccc3)n[nH]c2=O)cc1", "GI50": "inactive: > 100 µM"}, {"smiles": "Nc1c(C(=O)c2ccccc2)nnc2ccccc12", "GI50": "inactive: 35.8 µM"}, {"smiles": "OC1CSc2nc3ccccc3n2C1", "note": "(centres undefined)", "GI50": "inactive: > 100 µM"}, {"smiles": "O=C(O)c1nn(-c2ccccc2)nc1-c1nn(-c2ccccc2)nc1C(=O)O", "GI50": "inactive: > 100 µM"}, {"smiles": "O=C(O)Cc1ccc(Oc2nc3ccccc3nc2C(=O)O)cc1", "GI50": "inactive: > 100 µM"}, {"smiles": "O=C1c2ccccc2OCC1/C=N/O", "note": "(centres undefined)", "GI50": "inactive: > 100 µM"}, {"smiles": "CN(C)c1nc(Oc2nc(N(C)C)nc(N(C)C)n2)nc(N(C)C)n1", "GI50": "inactive: > 100 µM"}, {"smiles": "COC(=O)C1=C(c2ccc(OC)c(OC)c2)OC(c2ccc(OC)c(OC)c2)C1", "note": "(centres undefined)", "GI50": "inactive: 57.8 µM"}, {"smiles": "CCC(=O)CC(O)CC(C)CC(NC(=O)C1CC(C)CN1C(=O)/C=C/C(C)CC)C(=O)NC(C(=O)NC(C)(C)C(=O)NC(CC(C)C)C(=O)NC(CC(C)C)C(=O)NC(C)(C)C(=O)NC(C)(C)C(=O)NCCC(=O)NC(C)CN(C)C)C(O)C(C)C", "note": "(centres undefined) (X37-[ξPro(4ξ-Me)][X38][ξLeu(3ξ-OH)][Aib]LL[Aib][Aib][βAla]-X39; configuration not given here)", "GI50": "inactive: 2.14 µM"}, {"smiles": "CC1(C)CC(=O)/C(=C/C2CCNC2=S)C(=O)N1", "note": "(centres undefined)", "GI50": "inactive: > 100 µM"}, {"smiles": "C=C1CC(OC)(C(O)C(=O)N[C@H]2OCO[C@H]3C2O[C@H](C[C@@H](COC)OC)C(C)(C)C3OC)O[C@H](C)[C@@H]1C", "note": "(some centres undefined)", "GI50": "active: < 0.00482 µM"}, {"smiles": "c1ccc(/N=C(\\N2CCCC2)N(CCN2CCCC2)c2ccccc2)cc1", "GI50": "inactive: 24.9 µM"}, {"smiles": "Cc1ccnn1CCc1ccc(Cl)cc1Cl", "GI50": "inactive: 23.9 µM"}, {"smiles": "COc1cc2c(cc1OC)-c1cc3ccc(OC)c(OC)c3c[n+]1CC2", "note": "[PALMATINE CHLORIDE]", "GI50": "inactive: > 100 µM"}, {"smiles": "COc1ccccc1/C=C(/C)[N+](=O)[O-]", "GI50": "inactive: 16.3 µM and inactive: 9.66 µM"}, {"smiles": "C=C1C[C@@H]2C[C@@H](C)CC(O)[C@]2(CCCN)C1O", "note": "(some centres undefined)", "GI50": "inactive: > 100 µM"}, {"smiles": "C1CN(C23OC4(N5CCOCC5)C5C6CC(C7C6C4C72)C53)CCO1", "note": "(centres undefined)", "GI50": "inactive: > 100 µM"}, {"smiles": "O=[N+]([O-])/C=C/c1cc2ccc3ccccc3c2[nH]1", "GI50": "inactive: 2.88 µM"}, {"smiles": "COC(=O)C1=C(C(=O)OC)SC(=C2c3ccsc3-c3sccc32)S1", "GI50": "inactive: 59.3 µM"}, {"smiles": "COC(=O)c1sc2ncc3c(c2c1N)CCCCCC3", "GI50": "inactive: > 100 µM"}, {"smiles": "CC(/C=C/c1ncccc1OCCCCCC(=O)O)=N\\NC1=NCCN1", "GI50": "inactive: > 100 µM"}, {"smiles": "Cc1c(CCO)c(O)n2c(nc3ccccc32)c1C#N", "GI50": "inactive: > 100 µM"}, {"smiles": "Clc1cc(OC23CC4CC(CC(C4)C2)C3)nc(Cl)n1", "GI50": "inactive: 50.7 µM"}, {"smiles": "CCOC(=O)c1cccc(/N=N/c2nc[nH]c2/C=C/C(=O)OC)c1", "GI50": "inactive: 45.7 µM"}, {"smiles": "Cc1[nH]c(=O)[nH]c(=O)c1/C=C/C(=O)NC(CO)CC(C)C", "note": "(centres undefined)", "GI50": "inactive: 125 µM"}, {"smiles": "COc1cc2c(c(O)c1OC)C(=O)[C@@H]1CCC(=O)N1C2c1ccccc1", "note": "(some centres undefined)", "GI50": "inactive: > 100 µM"}, {"smiles": "Cn1cccc1/C=C/c1cc(Br)c(/C=C/c2cccn2C)cc1Br", "GI50": "inactive: 18.5 µM"}, {"smiles": "O=C1c2ccccc2C(=O)c2sc(Nc3ccc(Cl)c(Cl)c3)nc21", "GI50": "inactive: 15.6 µM"}, {"smiles": "C(=C\\C(Sc1ccccc1)c1ccccc1)/NNC1=NN=C(c2ccccc2)C(c2ccccc2)N1", "note": "(centres undefined)", "GI50": "inactive: 70.5 µM"}, {"smiles": "CC(C)c1oc(=O)cc2c1C(O)C1OC(=O)C3(C)C(O)C4OC4C2(C)C13", "note": "(centres undefined) [NAGILACTONE]", "GI50": "inactive: 5.15 µM"}, {"smiles": "CCCCCCc1cc2cc(C(=O)Nc3cccc(F)c3)c(=N)oc2cc1O", "GI50": "inactive: 2.69 µM"}, {"smiles": "CCCCCCNC(=O)C(C)C1CCC2(C)C=CC(=O)C(C)=C2C1O", "note": "(centres undefined)", "GI50": "inactive: > 100 µM"}, {"smiles": "Cc1ccccc1N(C)S(=O)(=O)c1ccccc1[N+](=O)[O-]", "GI50": "inactive: > 100 µM"}]}]}
